From the supplement of paper PMC3334620
The full ranking holds about 33,000 sequences; the median of “E-score (-0.5 to 0.5)” is about -0.011, and the highest 2% start at about 0.28. This is one part of the list.

biological target: T1, Gcr1 (UniProt P07261); assay: PBM E-score (8-mer binding enrichment) (E-score (-0.5 to 0.5)); higher = stronger / more preferred TF binding; most listed sequences are background and not binding sites; conditions: protein concentration: 100 nM; construct: GST-full length
T1 sequence: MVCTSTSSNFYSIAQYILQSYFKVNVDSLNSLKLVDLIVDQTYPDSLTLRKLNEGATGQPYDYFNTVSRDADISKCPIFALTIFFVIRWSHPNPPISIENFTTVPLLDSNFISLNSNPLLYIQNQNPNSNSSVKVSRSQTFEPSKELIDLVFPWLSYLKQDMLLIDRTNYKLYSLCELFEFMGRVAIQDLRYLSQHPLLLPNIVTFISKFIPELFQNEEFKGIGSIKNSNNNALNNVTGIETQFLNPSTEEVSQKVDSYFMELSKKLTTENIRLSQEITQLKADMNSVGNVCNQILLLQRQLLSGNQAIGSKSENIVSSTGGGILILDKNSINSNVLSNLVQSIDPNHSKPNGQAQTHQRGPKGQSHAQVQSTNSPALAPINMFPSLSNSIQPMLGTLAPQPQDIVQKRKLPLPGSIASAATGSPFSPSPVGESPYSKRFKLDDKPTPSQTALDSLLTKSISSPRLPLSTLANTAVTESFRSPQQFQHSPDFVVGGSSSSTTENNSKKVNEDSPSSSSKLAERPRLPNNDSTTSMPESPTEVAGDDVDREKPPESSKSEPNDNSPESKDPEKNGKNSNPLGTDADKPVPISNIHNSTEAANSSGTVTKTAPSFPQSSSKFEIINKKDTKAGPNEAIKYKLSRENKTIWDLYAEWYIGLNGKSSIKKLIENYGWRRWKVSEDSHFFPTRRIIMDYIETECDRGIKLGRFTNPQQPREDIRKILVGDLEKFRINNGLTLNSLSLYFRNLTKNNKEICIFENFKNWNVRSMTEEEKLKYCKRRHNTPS
In short: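 Full-length yeast transcription factors or their DNA-binding domains, GST-tagged and expressed with PURExpress, were applied at about 100-200 nM to universal all-10-mer Agilent arrays. These arrays had been made double-stranded by primer extension on fresh or once-stripped slides. Detection used fluorescent anti-GST, normalisation used masliner, and E-scores for ungapped eight-base words pooled with reverse complements came from the Universal PBM Analysis Suite.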

| Sequence | PBM E-score |
| --- | --- |
| TAATTGGA | 0.206 |
| AAGTTTCG | 0.126 |
| AAGTGATA | -0.0979 |
| ACCTCAAT | 0.092 |
| GTCTGATA | 0.0529 |
| AGAAACCG | 0.179 |
| GCAGGGGC | -0.0501 |
| CCCGACTA | 0.0255 |
| CGGATAAA | 0.195 |
| CGCTCTAC | -0.0891 |
| ACTTTACA | 0.0425 |
| TATTGGAA | 0.288 |
| AGGCTCGG | -0.187 |
| CAGCGCAC | -0.12 |
| ATTGCCGG | -0.181 |
| CTAAGGGC | 0.0547 |
| AGAGTGCC | -0.0496 |
| GCAATTTA | 0.189 |
| CGGCGGAG | 0.098 |
| ATTTGACA | 0.00188 |
| CCATCCGA | -0.0665 |
| ATAATCAA | 0.0908 |
| GTCTAATA | -0.021 |
| TCGGGAAA | -0.0473 |

| Sequence | PBM E-score |
| --- | --- |
| TATGATAA | -0.0065 |
| AAACGCAT | -0.0338 |
| ATGCGGCA | 0.0412 |
| CTCAGGGA | -0.0765 |
| GCCAATCC | 0.0418 |
| CTCGACGA | -0.167 |
| CCTGCTCG | -0.222 |
| AAAGTAGA | 0.194 |
| GATCGCTA | -0.112 |
| GCACTGGA | 0.218 |
| GTTGTGCA | -0.123 |
| GTTTTTGA | 0.0476 |
| ACCCAATG | 0.0138 |
| ACGGCATC | 0.2 |
| ATGTACTC | -0.05 |
| AACTTCGT | 0.173 |
| CCCACCCG | 0.172 |
| ACCTTATC | -0.161 |
| GCCTTCTA | 0.131 |
| AGCCTCAA | 0.0109 |
| CCGGTGGC | 0.0376 |
| AAGACGGT | -0.187 |
| CTCCGCTC | -0.148 |
| ACACGGCA | -0.081 |

| Sequence | PBM E-score |
| --- | --- |
| ATGCTTCC | 0.0851 |
| ATTACCCG | -0.00703 |
| AAGGAATC | 0.26 |
| GTTAGCGA | -0.125 |
| ACAGGCAG | 0.252 |
| ACACCTGA | -0.181 |
| AAAGTCTG | -0.0992 |
| CTCCGGTA | 0.018 |
| CATCAATG | 0.0391 |
| CTGTTCAC | -0.0145 |
| CACTGACA | 0.101 |
| TCAGCTCA | -0.194 |
| GCGCAGGA | -0.203 |
| AATACCCT | -0.0814 |
| CATACGAG | -0.0234 |
| CTTCTATA | 0.187 |
| CCTTACCC | -0.292 |
| AGTGAGGA | 0.0864 |
| AAAAGCCC | -0.194 |
| GGGTTCTA | 0.0354 |
| AAAGCTTG | -0.281 |
| TCCCCACA | -0.00673 |
| GCAAAGTA | 0.0465 |
| AACCTGGG | -0.173 |

| Sequence | PBM E-score |
| --- | --- |
| TTAACTAA | 0.0488 |
| AAGGTTGT | 0.0394 |
| CCCGCACA | 0.00198 |
| GCTTCCAA | 0.443 |
| AGCGGCGA | 0.0745 |
| GCTTTGCC | -0.214 |
| AGTCAATA | -0.0401 |
| AAATTCTA | -0.0194 |
| ACGGATCA | -0.0362 |
| CCGGTATA | 0.191 |
| TGCAAGCA | -0.227 |
| CGTCATTC | -0.0627 |
| AGTCGTCG | -0.091 |
| AGATGATC | 0.107 |
| GTCTGCGA | -0.0873 |
| CCATAGGG | -0.1 |
| CTAAGTGC | -0.0458 |
| ACTGCCCA | -0.083 |
| CGTGAAAG | 0.17 |
| ATGCGCAA | 0.0266 |
| ATTATCCC | -0.152 |
| ACCAGCTA | 0.00494 |
